Experimental data from PubChem BioAssay AID1476 (National Center for Advancing Translational Sciences (NCATS), 2009).
Among all 200,000 compounds or so, about 4,500 (2.2%) were called active. The inconclusive results got no clear call from the source; some entries with a clear call stand among them for comparison. Calls follow the shape of the dose curve; as a rule, active = well fitted inhibition curve with a large enough effect; inconclusive = small, poorly fitted or top-dose-only effect, or effect the other way; inactive = flat fitted curve, though single readings scatter. A potency beside an inconclusive call is a rough fit, not a confirmed value.

biological target: Cruzipain (Trypanosoma cruzi) (UniProt P25779); assay: qHTS Assay for Promiscuous and Specific Inhibitors of Cruzain (without detergent); conditions: purified cruzain, Z-FR-AMC fluorescence, no detergent; also: nearly all actives have a fitted effect of over 40% in size;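 as to max response, negative = inhibition: plate controls were enzyme without inhibitor for no effect and buffer without enzyme for full effect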
In short: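 Purified cruzain at 1.5 nM, pre-incubated 15 min with compound at room temperature in 100 mM sodium acetate pH 5.5, 5 mM DTT, 0.00005% Triton X-100. Reaction started with 2 uM Z-FR-AMC; AMC fluorescence increase over 60 s gives rate.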
Potency is read from the fitted curve at half-maximal effect; tags tell the direction and shape of the fitted curve.

Chain of UniProt P25779 (P25779 whole entry, looked up): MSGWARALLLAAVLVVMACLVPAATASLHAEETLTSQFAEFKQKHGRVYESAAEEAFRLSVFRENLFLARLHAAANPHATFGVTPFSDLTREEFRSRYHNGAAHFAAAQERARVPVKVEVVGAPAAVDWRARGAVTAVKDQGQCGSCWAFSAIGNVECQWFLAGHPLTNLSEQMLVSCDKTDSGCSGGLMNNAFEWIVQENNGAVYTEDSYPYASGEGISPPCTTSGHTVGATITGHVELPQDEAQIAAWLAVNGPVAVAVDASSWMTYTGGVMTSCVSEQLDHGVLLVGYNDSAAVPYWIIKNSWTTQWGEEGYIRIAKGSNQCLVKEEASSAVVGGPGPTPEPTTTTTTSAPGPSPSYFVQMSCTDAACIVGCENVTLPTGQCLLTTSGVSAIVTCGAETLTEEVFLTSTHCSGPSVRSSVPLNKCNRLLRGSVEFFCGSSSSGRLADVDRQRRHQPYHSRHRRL

Compound | Potency | max response, negative = inhibition
Cc1ccc(NS(=O)(=O)c2ccc3[nH]c4c(c3c2)CCCCCC4)cc1Cl | inconclusive: 39.8 µM [inhibitor, single point] | –
O=Nc1c(-c2c(O)[nH]c3cc(Br)ccc23)[nH]c2ccccc12 | active: 31.6 µM | –
Cc1cc(N2C(=O)CC(N3CCC(n4c(=O)[nH]c5ccccc54)CC3)C2=O)no1 (centres undefined) | – | inactive: 1.97%
CC(C)c1ccc(NC(=O)CN2C(=O)COc3ccc(S(=O)(=O)Nc4ccccc4)cc32)cc1 | active: 20 µM | –
O=S(=O)(c1cccc(C(F)(F)F)c1)n1c(/C=C/c2ccccc2)nc2ccccc21 | inconclusive: 39.8 µM [inhibitor, single point] | –
CCOC(=O)C1=C(c2ccccc2)NC(SCC(=O)Nc2ccc(C)cc2)=C(C#N)C1c1ccco1 (centres undefined) | inconclusive: 39.8 µM [inhibitor, single point] | –
CCCCCCn1c(N)c(C(=O)NCCN2CCOCC2)c2nc3ccccc3nc21 | inconclusive: 20 µM [activator, partial curve] | –
CCC(C(=O)Nc1ccc(OC)c(Cl)c1)c1ccccc1 (centres undefined) | inconclusive: 25.1 µM [inhibitor, single point] | –
CCNc1nc(Cl)nc(NCc2ccccc2)n1 | inconclusive: 31.6 µM [inhibitor, single point] | –
Cn1cccc1/C=C1\SC(=O)N(CC(=O)Nc2ccc(Cl)cc2)C1=O | inconclusive: 20 µM [inhibitor, single point] | –
CSc1cccc(NC(=O)CN(c2ccccc2)S(=O)(=O)N(C)C)c1 | inconclusive: 15.8 µM [activator, partial curve, poor fit] | –
Cc1cccc(NC(=O)N(Cc2cc3cc(C)cc(C)c3[nH]c2=O)CC2COCCO2)c1 (centres undefined) | inconclusive: 31.6 µM [activator, single point] | –
CCCCc1nc2ccccc2n2c(-c3ccc(C)cc3)c3c(=O)n(C)c(=O)n(C)c3c12 | – | inactive: 1.83%
Cc1cc(-c2csc(NC(=O)c3ccccc3C(F)(F)F)n2)c(C)n1Cc1ccccc1 | active: 15.8 µM | –
NC1=NCCCC1 | – | inactive: 3.76%
Nc1c(-c2nc(-c3ccc(Cl)cc3)cs2)c2ccccn2c1C(=O)c1ccc2c(c1)OCO2 | – | inactive: -9.14%
O=c1c2ccccc2nnn1CSc1nnc(-c2cccs2)n1Cc1ccccc1 | – | inactive: -11.6%
Cc1ccc(C(=O)Oc2cccc(NC(=O)c3cccs3)c2)cc1S(=O)(=O)N1CCOCC1 | inconclusive: 39.8 µM [inhibitor, single point] | –
COc1cc(Br)c(C2CC(=O)Nc3cc(OC)c(OC)c(OC)c32)cc1OC (centres undefined) | inconclusive: 39.8 µM [activator, single point] | –
